Here are results for 82 compounds from ChEMBL document CHEMBL4888484, “Replenishing the malaria drug discovery pipeline: Screening and hit evaluation of the MMV Hit Generation Library 1 (HGL1) against asexual blood stage Plasmodium falciparum ,using a nano luciferase reporter read-out” (2022).

SMILES strings stand for the structures. The whole screen tested about 150,000 compounds, of which about 540 (0.36%) showed an effect of 50% or more. The list shows a part of the results.

This assay has as its system Plasmodium falciparum. In words: Primary screen in NF54 nanoGlo assay, in single point, at 2uM, 72h; a lower Z score goes with more inhibition. The class given is functional, Erythrocyte. Particulars: timepoint 72 hour.
In the case of `CNC(=O)[C@@H]1C[C@@H](NC(C)C)CN1Cc1ccccc1Cl`, the “% Inhibition” value is -2% and the Z score stood at 0.29.

Consider `COCCN(C(=O)Nc1cccc(NC(=O)C(C)C)c1)[C@H]1CCS(=O)(=O)C1`, for which the “% Inhibition” value is listed as -7% and the Z score came to 0.72.

On to `O=C(Nc1ccc(-c2ccccn2)cc1)N1CCC[C@@]2(CCS(=O)(=O)C2)C1`, for which the “% Inhibition” value came out at 5% and the Z score is recorded as -0.38.

As to `CCOC(=O)N1CCN(C(=O)CC[C@@H](C)[C@H]2CC[C@H]3[C@@H]4CC[C@@H]5C[C@H](O)CC[C@]5(C)[C@H]4C[C@H](O)[C@]23C)CC1`, the “% Inhibition” value was 6% and the Z score was -0.99.

Turning to `Cc1cccc(CN(Cc2cocn2)Cc2cocn2)n1`, the “% Inhibition” value is given as -8% and the Z score was found to be 1.25.

For `CC(CCc1cccn1C)NC(=O)N1CCCC(Cn2ccnn2)C1` (centres undefined), the “% Inhibition” value was -3% and the Z score is 0.41.

Take `Cc1cn2cc(C(=O)N3CCC(F)(F)CC3)ccc2n1`: the “% Inhibition” value is on record as -16% and the Z score was found to be 1.88.

Consider `CN1N=C(C(=O)N[C@H](c2ccc(F)cc2)c2ncc[nH]2)CCC1=O`, for which the “% Inhibition” value came out at 7% and the Z score is listed as -1.21.

On to `O=C(Cc1csc(Cc2cccc(Cl)c2)n1)Nc1ccc2oc(C(F)(F)F)nc2c1`, for which the “% Inhibition” value worked out at 9% and the Z score is -1.76.

For the compound `COC(=O)c1c(NC(=O)c2ccccc2)c2cc(NCc3ccc(F)c(F)c3)cnc2n1C[C@H]1CCCO1`, the “% Inhibition” value is reported as -2% and the Z score was determined as 0.32.

As to `CCc1nc(N2CCC3(CC2)C[C@@H](c2ccccc2)C(=O)N(CC)C3)no1`, the “% Inhibition” value is reported as -6% and the Z score came out at 1.23.

With `Cc1ccc(CCNC(=O)NCc2ccoc2C)cn1`, the “% Inhibition” value worked out at 3% and the Z score is reported as -0.35.

As for `COC[C@@]12CN(C(C)=O)CC[C@@H]1CN(C(=O)COc1cccc(C)c1)C2`, the “% Inhibition” value is given as -17% and the Z score was 1.98.

As to `Cc1ccc(-c2nc3cccnc3n2CCCNC(=O)Nc2ccc(Br)cc2)cc1`, the “% Inhibition” value was -6% and the Z score is given as 0.57.

`COc1cccc(-c2ccc(N3CCN(C(=O)CN(Cc4ccc(F)cc4)C(=O)c4ccco4)CC3)nn2)c1`: the “% Inhibition” value is -12% and the Z score was determined as 2.01.

Turning to `O=C(NCc1ccncc1)c1csc(COc2ccc(F)cc2F)n1`, the “% Inhibition” value is -4% and the Z score amounted to 0.71.

Regarding `O=C(NCC1COC1)c1cnc(-c2cccnc2)s1`, the “% Inhibition” value was -2% and the Z score stood at 0.23.

Regarding `COCC1CCC(N[C@@H](C)c2nc(C(F)(F)F)no2)CC1` (some centres undefined), the “% Inhibition” value is listed as -3% and the Z score was 0.37.

In the case of `COCc1nc([C@@H]2CCCCCN2C(=O)Nc2cccc(C#N)c2)no1`, the “% Inhibition” value is given as -9% and the Z score was 1.15.

Take `COC(=O)Cn1c(=O)n(-c2ccccc2)c(=O)n1CC(=O)OC`: the “% Inhibition” value amounted to 1% and the Z score was -0.1.

Regarding `O=S(=O)(Nc1nncs1)c1cc(Cl)sc1Cl`, the “% Inhibition” value is on record as -6% and the Z score amounted to 0.65.

As for `CN(C(=O)C1(n2cnnn2)CCOCC1)c1nc2c(Cl)cccc2s1`, the “% Inhibition” value is recorded as -9% and the Z score is 1.1.

Regarding `COc1ccc(C2CC(C)N(C(=O)C(C)NS(C)(=O)=O)C2)cc1` (centres undefined), the “% Inhibition” value is -13% and the Z score came out at 1.17.

Consider `COc1ccc(OC)c([C@H](C)NC(=O)N2CCS(=O)(=O)CC2)c1`, for which the “% Inhibition” value was 41% and the Z score is recorded as -5.3.

Turning to `CCS(=O)(=O)N1CC(=O)N(c2ccc(C)c(Cl)c2)[C@](C)(C(=O)NC2CCCCCC2)C1`, the “% Inhibition” value is -13% and the Z score is reported as 1.81.

In the case of `Cc1ccc(NC(=O)[C@@]2(CCO)CCN(c3ncccn3)C2)cc1`, the “% Inhibition” value is on record as -10% and the Z score amounted to 1.81.

With `COc1ccc([C@@H](NC(=O)N2CCC(c3nc4ccccc4n3C)CC2)C(C)C)cc1OC`, the “% Inhibition” value was -5% and the Z score is 0.7.

On to `O=C(Nc1cnn(-c2ncc(N3CCCCC3)cn2)c1)c1cccnc1`, for which the “% Inhibition” value is recorded as -6% and the Z score is given as 0.9.

With `O=C(Cn1c(=O)n(CC(=O)NC2CCCC2)c(=O)c2ccccc21)Nc1cc(Cl)cc(Cl)c1`, the “% Inhibition” value is reported as -1% and the Z score is 0.13.

On to `Fc1ccc(-c2nc([C@@]3(CC4CC4)CCCNC3)no2)cc1`, for which the “% Inhibition” value amounted to 2% and the Z score is given as -0.38.

`CC(C)CN1CCN(C(=O)c2ccccc2-n2cncn2)[C@@H](C)C1=O`: the “% Inhibition” value is reported as -1% and the Z score turned out to be 0.24.

`Cc1c([C@@H](NCc2ncccc2O)C(C)C)oc2ccccc12`: the “% Inhibition” value was found to be 97% and the Z score is on record as -8.67.

On to `O=C(Nc1snc2ccccc12)[C@H]1CCS(=O)(=O)C1`, for which the “% Inhibition” value is 0% and the Z score is given as -0.02.

For `CCN(CC)CCN(C)C(=O)c1cnn(-c2nccc(-c3ccccc3OC)n2)c1-c1ccco1`, the “% Inhibition” value was -2% and the Z score was 0.24.

Turning to `O=C(CCn1cncn1)Nc1cc(C2CCCCCC2)[nH]n1`, the “% Inhibition” value was -9% and the Z score worked out at 0.77.

As for `O=C(Nc1ccccn1)c1cc(=O)c(OCc2ccc(Cl)cc2)c[nH]1`, the “% Inhibition” value was -13% and the Z score is given as 1.66.

Regarding `C#CCCC1(CCC(=O)N2CC(OCC(F)F)C2)N=N1`, the “% Inhibition” value is on record as 0% and the Z score stood at 0.06.

In the case of `Cc1nn(-c2ccc(C(=O)N3CCOCC3)cc2)c2c1C(=O)CCC2`, the “% Inhibition” value was -15% and the Z score stood at 1.36.

In the case of `CCn1ncc(-c2noc3nc(C4CC4)cc(C(=O)Nc4c(C)noc4C)c23)c1C`, the “% Inhibition” value is listed as 30% and the Z score was -3.39.

As to `Cc1ccc(O)c(CCc2ccc(O)cc2)n1`, the “% Inhibition” value was 0% and the Z score came to 0.04.

On to `c1ccc(CN2CCN(Cc3cccc(Oc4ccccc4)c3)CC2)cc1`, for which the “% Inhibition” value was -1% and the Z score is 0.2.

As to `CC(C)[C@@H](C(=O)Nc1ccc(N(C)C)cc1)N(Cc1ccccc1)C(=O)CN1C(=O)C(=O)c2ccccc21`, the “% Inhibition” value came out at 32% and the Z score is listed as -3.65.

For `COc1ccc(NC(=O)c2ccc(Cn3cnc4c3c(=O)n(C)c(=O)n4C)cc2)cc1`, the “% Inhibition” value is reported as -11% and the Z score was 2.11.

Consider `O=C1c2ccccc2C(=O)N1c1ncc(Cc2ccccc2Cl)s1`, for which the “% Inhibition” value is -7% and the Z score is listed as 0.87.

On to `CCOC(=O)CN1C(=O)C(F)(F)c2cc(NCc3c(C)noc3C)ccc21`, for which the “% Inhibition” value was 14% and the Z score is given as -1.41.

Turning to `CCc1noc(C)c1NS(=O)(=O)CCCC(F)(F)F`, the “% Inhibition” value is listed as -1% and the Z score came to 0.08.

Take `CCc1c(C)cc(C(=O)N[C@@H]2COCC[C@@H]2OCC=C(C)C)c(=O)n1C`: the “% Inhibition” value is given as -4% and the Z score is reported as 0.93.

As for `CCc1ccc(NC(=O)N2C[C@H](O)[C@@H](F)C2)cc1`, the “% Inhibition” value is listed as 4% and the Z score is -0.39.

As to `CCOC(=O)CNC(=O)N1CCN(S(=O)(=O)c2ccc3c(ccn3C)c2)CC1`, the “% Inhibition” value was 2% and the Z score was -0.3.

For `CC(=O)N1CC2=Nc3cccc4c3c(cn4CCC(C)C)[C@H](c3c(F)cccc3Cl)C2=C1O`, the “% Inhibition” value is 0% and the Z score is listed as -0.03.

Consider `CCCn1nnc(NC(=O)c2cccs2)n1`, for which the “% Inhibition” value is listed as 7% and the Z score is given as -0.87.

For the compound `Cc1nc(-c2ccccc2NC(=O)NCCOc2ccccc2)cs1`, the “% Inhibition” value is -7% and the Z score turned out to be 1.33.

Take `Cc1cc(-c2noc(CCC(=O)N3CCC(c4nncn4C)CC3)n2)ccc1F`: the “% Inhibition” value is given as -9% and the Z score is 1.51.

Consider `Cc1ccc([C@H](CNc2ccc3cc[nH]c3n2)N(C)C)o1`, for which the “% Inhibition” value was -10% and the Z score is 1.47.

As for `Cc1cnc(NC[C@H]2CC[C@H](CO)CC2)nc1N(C)C`, the “% Inhibition” value is given as -7% and the Z score stood at 1.08.

For `CCc1nnsc1-c1nc(C2CC2)n[nH]1`, the “% Inhibition” value is on record as -10% and the Z score is 1.96.

For `Clc1cccc(-n2cc(-c3noc(-c4cccs4)n3)nn2)c1`, the “% Inhibition” value is listed as -16% and the Z score is 3.05.

With `O=C1NC2(CCN(S(=O)(=O)c3ccc(F)c(F)c3)CC2)N=C1c1cccs1`, the “% Inhibition” value is on record as -10% and the Z score is 0.96.

Take `CCCCn1ccnc1C1CCN(C(=O)c2ccccc2-c2nnn[nH]2)CC1`: the “% Inhibition” value is -4% and the Z score was found to be 0.46.

As to `C[C@H](Nc1nc2nonc2nc1N)c1ccccc1`, the “% Inhibition” value is recorded as -8% and the Z score was 1.04.

For `CCNC(=O)Cn1ccc(NC(=O)[C@@H]2CCCc3ccccc32)n1`, the “% Inhibition” value is listed as -12% and the Z score is given as 1.63.

With `CCCCNC(=O)CCS(=O)(=O)c1ccc(Cl)cc1`, the “% Inhibition” value is reported as 1% and the Z score is listed as -0.14.

For `Cc1nn(C)c2nc(N3CCS(=O)(=O)CC3)sc12`, the “% Inhibition” value is reported as -6% and the Z score was found to be 1.22.

As for `NC(=O)[C@H]1CCN(C(=O)c2ccc3noc(-c4ccccc4)c3c2)C1`, the “% Inhibition” value turned out to be 9% and the Z score was -1.18.

`C=CCNC(=O)c1cccnc1Oc1cccc(NS(=O)(=O)c2ccccc2)c1`: the “% Inhibition” value is -4% and the Z score is on record as 0.75.

For the compound `CC1CN(C(=O)C2CCCN(C(=O)c3ccc(Cl)cc3)C2)CC(C)O1` (centres undefined), the “% Inhibition” value is listed as -11% and the Z score is on record as 1.4.

For `Cc1cnc(-n2cnnc2)c(-c2cn[nH]c2)c1`, the “% Inhibition” value amounted to 2% and the Z score was -0.27.

As to `Cc1nnc(CN2CCC[C@H](Cn3ccnc3C)C2)s1`, the “% Inhibition” value was -16% and the Z score is 1.99.

Consider `CC1=NO[C@](C)(C(=O)NCC2(COc3ccccc3)CC2)C1`, for which the “% Inhibition” value is reported as -11% and the Z score is listed as 1.39.

With `CC(=O)Nc1nnc(-c2cc(Cl)sc2Cl)o1`, the “% Inhibition” value is given as -4% and the Z score stood at 0.72.

In the case of `O=C(CS(=O)(=O)c1ccc(Cl)cc1)N1CCOCC1`, the “% Inhibition” value is given as -6% and the Z score is reported as 0.81.

Consider `Cc1ccnc(NC(=O)c2cccnc2O)c1`, for which the “% Inhibition” value is on record as -12% and the Z score is on record as 2.3.

On to `O=C(Cc1ccccc1)N1CCN(c2cc(N3CCCC3)ncn2)CC1`, for which the “% Inhibition” value is reported as -8% and the Z score came out at 0.94.

For `CO[C@@H](CS(=O)(=O)Nc1c(O)cc(Br)cc1Cl)C1CC1`, the “% Inhibition” value was -9% and the Z score was 1.25.

Consider `O=C(Cn1cnnn1)Nc1ccc(-c2ccc(Cl)s2)cn1`, for which the “% Inhibition” value is given as -15% and the Z score is 1.36.

`O=C(c1nc2ccccn2c1F)N1CCC[C@H]1c1nc(-c2ccccc2)no1`: the “% Inhibition” value stood at 5% and the Z score is -0.98.

On to `CN(Cc1ccccc1)Cc1cn([C@H]2CO[C@H]3[C@@H]2OC[C@@H]3NC(=O)c2ccc(C(F)(F)F)cc2)nn1`, for which the “% Inhibition” value was found to be 13% and the Z score was -1.46.

`Cc1cn2cc(-c3ccccc3)c(C#N)c2nc1C`: the “% Inhibition” value is -14% and the Z score was 2.08.

In the case of `Cc1cnc2nc(C(=O)N3CCOC[C@@]3(C)C3CC3)nn2c1`, the “% Inhibition” value is given as 0% and the Z score is 0.08.

For `CC[C@@H]1C(=O)N(c2nc(C)cc(C)n2)N=C1C`, the “% Inhibition” value is recorded as -7% and the Z score came to 0.96.

Turning to `CCn1c(-c2cc(NC(=O)c3cccs3)[nH]n2)c(C)c2ccccc21`, the “% Inhibition” value came out at 8% and the Z score is -1.07.

For the compound `Cc1cc(NCc2nncn2C)ccc1C(=O)OC(C)(C)C`, the “% Inhibition” value is -8% and the Z score came to 0.86.
